Changes are numbered by the printed parent chain; changes in the protein carry UniProt numbers. Some of the results follow.
B1: AUAUGAU (DNA:RNA)
RNA: GGGAGACCGGAAUUCAGAUUGUCCAUAUGAUUUAAAUCCCGUCGUAGCCACCA
DNA 1: CAATCTGAATTCCGGTCTCCC
DNA 2: TGGTGGCTACGACGGGATT
B2: AGUACUU (DNA:RNA)
RNA: B1 RNA with U26G, A27U, U28A, G29C, A30U
DNA 1: CAATCTGAATTCCGGTCTCCC
DNA 2: TGGTGGCTACGACGGGATT
B3: GGCAGCC (DNA:RNA)
RNA: B1 RNA with A25G, U26G, A27C, U28A, A30C, U31C
DNA 1: CAATCTGAATTCCGGTCTCCC
DNA 2: TGGTGGCTACGACGGGATT
B4: UCAGGAA (DNA:RNA)
RNA: B1 RNA with A25U, U26C, U28G, U31A
DNA 1: CAATCTGAATTCCGGTCTCCC
DNA 2: TGGTGGCTACGACGGGATT
B5: AAGGCCC (DNA:RNA)
RNA: B1 RNA with U26A, A27G, U28G, G29C, A30C, U31C
DNA 1: CAATCTGAATTCCGGTCTCCC
DNA 2: TGGTGGCTACGACGGGATT
B6: ACCCUGC (DNA:RNA)
RNA: B1 RNA with U26C, A27C, U28C, G29U, A30G, U31C
DNA 1: CAATCTGAATTCCGGTCTCCC
DNA 2: TGGTGGCTACGACGGGATT
B7: UGAAGGC (DNA:RNA)
RNA: B1 RNA with A25U, U26G, U28A, A30G, U31C
DNA 1: CAATCTGAATTCCGGTCTCCC
DNA 2: TGGTGGCTACGACGGGATT
B8: UGUAUCG (DNA:RNA)
RNA: GGGAGACCGGAAUUCAGAUUGUCCUGUAUCGUUAAAUCCCGUCGUAGCCACCA
DNA 1: CAATCTGAATTCCGGTCTCCC
DNA 2: TGGTGGCTACGACGGGATT
B9: GCUAGGC (DNA:RNA)
RNA: B8 RNA with U25G, G26C, U29G, C30G, G31C
DNA 1: CAATCTGAATTCCGGTCTCCC
DNA 2: TGGTGGCTACGACGGGATT

Biological target: T1, RBFOX1 RRM RbFoxmut (Fox-RRM*) (Homo sapiens, UniProt Q9NWB1 109-208, R118D;E147R;N151S;E152T)
T1 sequence: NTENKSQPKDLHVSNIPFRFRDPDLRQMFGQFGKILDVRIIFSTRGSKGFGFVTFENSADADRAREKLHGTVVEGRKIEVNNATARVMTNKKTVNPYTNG
Experiment: EMSA; HiTS-Eq, 1 nM pool, 10 min; buffer printed only for the single-RNA assays: 10 mM Tris pH 7.5, 150 mM NaCl, 3.4 mM EDTA, 0.001% NP-40, 30 C
Settings: tags: His6 N-terminal (pET28a); label: 5' 32P
Method in brief: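 Purified RbFox RRM, wild type or mutant, was incubated for 10 min in 50 µL with 1 nM of a 5′-radiolabelled RNA pool carrying 7 randomized nucleotides, whose flanks were annealed to DNA oligonucleotides, over a series of increasing protein concentrations. Unbound RNA was resolved on 8% native PAGE, cut out, reverse-transcribed, barcoded by PCR and sequenced on an Illumina HiSeq 2500. Relative association constants were derived from changes in read counts for each RNA species versus the control reaction and normalised to the cognate motif.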

| Binder | binding signal |
| --- | --- |
| B1 | 0.0827 KA relative to UGCAUGU |
| B2 | 0.0864 KA relative to UGCAUGU |
| B3 | 0.119 KA relative to UGCAUGU |
| B4 | 0.109 KA relative to UGCAUGU |
| B5 | 0.0497 KA relative to UGCAUGU |
| B6 | 0.11 KA relative to UGCAUGU |
| B7 | 0.0677 KA relative to UGCAUGU |
| B8 | 0.648 KA relative to UGCAUGU |
| B9 | 0.0891 KA relative to UGCAUGU |
